# Laboratory results: PubChem BioAssay AID588453 (National Center for Advancing Translational Sciences (NCATS), 2011)
# Among all 390,000 compounds or so, about 4,000 (1%) were called active. The inconclusive results got no clear call from the source; some entries with a clear call stand among them for comparison. Calls follow the shape of the dose curve; as a rule, active = well fitted inhibition curve with a large enough effect; inconclusive = small, poorly fitted or top-dose-only effect; inactive = no such curve, though single readings can be large or run the other way. A potency beside an inconclusive call is a rough fit, not a confirmed value.
# Target: Thioredoxin reductase 1, cytoplasmic (Rattus norvegicus) (UniProt O89049)
# UniProt O89049, sequence (O89049 whole entry, looked up): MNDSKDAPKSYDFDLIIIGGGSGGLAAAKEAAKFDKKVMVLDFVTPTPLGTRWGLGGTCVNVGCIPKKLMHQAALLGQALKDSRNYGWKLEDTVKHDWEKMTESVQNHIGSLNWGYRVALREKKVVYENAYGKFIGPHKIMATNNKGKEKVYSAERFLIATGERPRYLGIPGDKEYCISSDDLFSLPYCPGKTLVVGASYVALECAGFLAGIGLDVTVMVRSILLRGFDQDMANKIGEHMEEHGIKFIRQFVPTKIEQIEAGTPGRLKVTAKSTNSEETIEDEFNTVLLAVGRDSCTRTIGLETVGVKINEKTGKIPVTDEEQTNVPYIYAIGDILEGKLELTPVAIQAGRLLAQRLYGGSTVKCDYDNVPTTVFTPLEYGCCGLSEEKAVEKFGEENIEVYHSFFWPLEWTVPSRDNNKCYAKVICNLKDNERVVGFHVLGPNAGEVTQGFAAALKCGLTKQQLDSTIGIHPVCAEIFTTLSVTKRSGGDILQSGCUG
# Experiment: qHTS Assay for Inhibitors of Mammalian Selenoprotein Thioredoxin Reductase 1 (TrxR1): qHTS; also: nearly all actives have a fitted effect of over 65% in size
# Settings: recombinant rTrxR1, NADPH fluorescence consumption, selenite substrate; series mostly up to 114 µM; activity change, negative = inhibition: at the top concentration
# Procedure, shortened: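 Rat TrxR1 (90 nM in the dispensed reagent) was pre-reduced with 400 uM NADPH for 5 min at room temperature, then incubated with compound for 15 min. After 400 uM selenite was added, NADPH fluorescence (Ex 340/Em 450 nm) was followed for 8 min.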
# % is scaled to controls: 0 for no effect and ±100 for the full control effect; potency is read from the fitted curve at half-maximal effect; tags tell the direction and shape of the fitted curve.
SMILES,Potency,"activity change, negative = inhibition"
CN(C)c1ccc(C(=S)N2CCCCC2)cc1,"inconclusive: 79.4 µM [inhibitor, partial curve, poor fit]",–
Cc1ccc(-c2csc(NS(=O)(=O)c3cccc(F)c3)n2)o1,"inconclusive: 39.8 µM [inhibitor, single point]",–
Cn1ncc(Cl)c1C(=O)NC(=S)Nc1sc2c(c1C#N)CCCCC2,"inconclusive: 2.82 µM [inhibitor, full curve]",–
CN1C(=O)/C(=C/c2ccccc2F)Sc2ccc(C(=O)N3CCCC3)cc21,–,inactive: -1.25%
CCn1c(CNC(=O)c2ccc(OC)cc2)nnc1SCC(=O)Nc1cccc(C)c1,–,inactive: 12.6%
Cc1onc(-c2ccccc2)c1C(=O)N/N=C/c1ccc([N+](=O)[O-])s1,"inconclusive: 44.7 µM [inhibitor, partial curve]",–
C=CCN1CCN(C(c2ccc(Cl)cc2)c2nnnn2CCc2ccc(OC)c(OC)c2)CC1 (stereo not given),–,inactive: 7.82%
Nc1nnc2c(n1)CCCC2,"inconclusive: 25.1 µM [inhibitor, full curve]",–
CCN(CC)c1ccc(/C=N/Nc2cccc(C)c2)c(O)c1,active: 22.4 µM,–
CC1(C)Cc2c(c(-c3ccco3)[nH]c(=O)c2C#N)CO1,"inconclusive: 12.6 µM [inhibitor, partial curve, poor fit]",–
C/C(=C\C(=O)c1ccc(C)o1)Nc1ccc2c(c1)OCO2,"inconclusive: 15.8 µM [inhibitor, full curve, poor fit]",–
CCS(=O)(=O)N1CCN(C(=O)CCC2CCCC2)CC1,"inconclusive: 2.51 µM [inhibitor, partial curve, poor fit]",–
Cc1oc(-c2ccccc2F)nc1CS(=O)(=O)CC(=O)NCCCc1ccccc1,"inconclusive: 31.6 µM [inhibitor, single point]",–
CCCCC(=O)Nc1nnc(/C=C/c2ccc(OC)cc2)s1,"inconclusive: 100 µM [inhibitor, single point]",–
Cc1ccc(C2C(C#N)=C(N)SC(N)=C2C#N)c(C)c1,active: 2.82 µM,–
Brc1ccc(C2Nc3cccc4cccc(c34)N2)o1,active: 25.1 µM,–
CN(CC(=O)Nc1ccc(OC(F)(F)F)cc1)C(=O)Cc1ccc2c(c1)CCC2,"inconclusive: 89.1 µM [inhibitor, partial curve, poor fit]",–
Cc1cccc(-n2nc3c(c2NC(=O)c2ccc(Br)o2)CSC3)c1,–,inactive: -20.4% [at 57.1 µM]
COc1ccc(C(=O)NCC(=O)N/N=C(C)\C=C\c2ccccc2)cc1OC,"inconclusive: 35.5 µM [inhibitor, partial curve, poor fit]",–
O=C(C1CC1)N(Cc1ccco1)c1nc(-c2ccccc2)cs1,"inconclusive: 28.2 µM [inhibitor, single point]",–
O=C(CCNS(=O)(=O)c1ccc2c(c1)CCN2C(=O)C1CC1)Nc1ccc(Cl)cc1,–,inactive: 18.1% [at 57.1 µM]
Cc1ccc(OCc2nnc(SC3CCc4ccccc4C3=O)n2C)cc1 (stereo not given),"inconclusive: 89.1 µM [inhibitor, single point]",–
O=C(Nc1nc(-c2ccccn2)cs1)C1CC(=O)N(c2ccc3c(c2)OCCO3)C1 (stereo not given),–,inactive: -2.75%

SMILES,Potency,"activity change, negative = inhibition"
CN(C)CCC1(C2=CCCC2)CC/C(=C/c2ccc(Cl)cc2)C1=O (stereo not given),"inconclusive: 17.8 µM [inhibitor, full curve]",–
C=CCn1c(N2CCCC2)nc2c1c(=O)[nH]c(=O)n2C,"inconclusive: 22.4 µM [inhibitor, single point]",–
O=S(=O)(NCCc1ccc2c(c1)OCCO2)c1cccs1,–,inactive: 8.57%
COc1ccc(CCNC(=O)c2cnc3sc(N4CCCCCC4)nn3c2=O)cc1,–,inactive: -3.59%
Nc1nc2nn(-c3ccccc3)nc2c(=O)[nH]1,"inconclusive: 20 µM [inhibitor, full curve]",–
COc1ccc(C(=O)NC2CCCc3c2cnn3-c2ccccc2F)cc1OC (stereo not given),–,inactive: 6.8%
C/C(=N/Nc1nc(-c2ccccc2)c(CC(=O)O)s1)c1ccccc1,active: 5.62 µM,–
Cn1nnc2c(N3CCN(Cc4ccccc4)CC3)ncnc21,"inconclusive: 50.1 µM [inhibitor, partial curve, poor fit]",–
Cc1c(NC(=O)c2c(N)sc3c2CCCC3)c(=O)n(-c2ccccc2)n1C,"inconclusive: 63.1 µM [inhibitor, single point]",–
CCOC(=O)C1(Cc2ccccc2C)CCCN(C(=O)c2ccc(OC)o2)C1 (stereo not given),"inconclusive: 56.2 µM [inhibitor, partial curve, poor fit]",–
Cc1c(NC(=O)C(=O)/C=C(\O)c2ccc(Br)cc2)c(=O)n(-c2ccccc2)n1C,"inconclusive: 22.4 µM [inhibitor, full curve]",–
O=C(NCCO)C(=O)Nc1cc2c3c(c1)CCN3C(=O)CC2,"inconclusive: 17.8 µM [inhibitor, full curve, poor fit]",–
CCOc1ccc(-n2nc3ccc(NC(=O)COc4ccccc4)cc3n2)cc1,"inconclusive: 89.1 µM [inhibitor, single point]",–
CCC(C)S(=O)(=O)c1oc(-c2ccc(F)cc2)nc1S(=O)(=O)c1ccc(F)cc1 (stereo not given),active: 2 µM,–
COc1ccccc1/C=C/C1(C(=O)NC2CCCC2)CC(=O)N1c1ccc(F)cc1 (stereo not given),"inconclusive: 25.1 µM [inhibitor, full curve, poor fit]",–
CCOC(=O)/C(C#N)=C\c1ccco1,"inconclusive: 89.1 µM [inhibitor, partial curve, poor fit]",–
O=c1/c(=C/c2ccco2)sc2nc(-c3ccccc3Br)nn12,"inconclusive: 28.2 µM [inhibitor, partial curve]",–
CCN1CCN(c2cc(C)c3cc(NC(=O)/C=C/c4ccc(OCCC(C)C)cc4)ccc3n2)CC1,–,inactive: 6.95% [at 2.29 µM]
O=C(CCNc1cccc(F)c1)c1cc2ccccc2o1,active: 7.94 µM,–
CC(=O)OCCCNc1cc(Sc2nc3ccccc3s2)c2nonc2c1[N+](=O)[O-],active: 0.316 µM,–
CCC(=O)N1c2ccc(S(=O)(=O)CCC(=O)N3CCN(c4ccc(F)cc4)CC3)cc2CC1C (stereo not given),"inconclusive: 44.7 µM [inhibitor, partial curve]",–
CCCCCC(=O)NNC1CC(=O)N(c2cccc(OCC)c2)C1=O (stereo not given),–,inactive: 7.7% [at 11.4 µM]
